In all, about 310,000 compounds went through this assay and about 2,200 (0.71%) showed an effect of 50% or more. Effects have a minus sign here. This is one part of the list.

These results are taken from paper PMC4336329 (PLoS ONE, 2015).

The target of the experiment is human ether-à-go-go-related gene (hERG) potassium channel (human, UniProt Q12809). Put plainly: primary screen, population patch clamp on CHO cells stably expressing hERG.
human ether-à-go-go-related gene (hERG) potassium channel, sequence (Q12809 whole entry, looked up): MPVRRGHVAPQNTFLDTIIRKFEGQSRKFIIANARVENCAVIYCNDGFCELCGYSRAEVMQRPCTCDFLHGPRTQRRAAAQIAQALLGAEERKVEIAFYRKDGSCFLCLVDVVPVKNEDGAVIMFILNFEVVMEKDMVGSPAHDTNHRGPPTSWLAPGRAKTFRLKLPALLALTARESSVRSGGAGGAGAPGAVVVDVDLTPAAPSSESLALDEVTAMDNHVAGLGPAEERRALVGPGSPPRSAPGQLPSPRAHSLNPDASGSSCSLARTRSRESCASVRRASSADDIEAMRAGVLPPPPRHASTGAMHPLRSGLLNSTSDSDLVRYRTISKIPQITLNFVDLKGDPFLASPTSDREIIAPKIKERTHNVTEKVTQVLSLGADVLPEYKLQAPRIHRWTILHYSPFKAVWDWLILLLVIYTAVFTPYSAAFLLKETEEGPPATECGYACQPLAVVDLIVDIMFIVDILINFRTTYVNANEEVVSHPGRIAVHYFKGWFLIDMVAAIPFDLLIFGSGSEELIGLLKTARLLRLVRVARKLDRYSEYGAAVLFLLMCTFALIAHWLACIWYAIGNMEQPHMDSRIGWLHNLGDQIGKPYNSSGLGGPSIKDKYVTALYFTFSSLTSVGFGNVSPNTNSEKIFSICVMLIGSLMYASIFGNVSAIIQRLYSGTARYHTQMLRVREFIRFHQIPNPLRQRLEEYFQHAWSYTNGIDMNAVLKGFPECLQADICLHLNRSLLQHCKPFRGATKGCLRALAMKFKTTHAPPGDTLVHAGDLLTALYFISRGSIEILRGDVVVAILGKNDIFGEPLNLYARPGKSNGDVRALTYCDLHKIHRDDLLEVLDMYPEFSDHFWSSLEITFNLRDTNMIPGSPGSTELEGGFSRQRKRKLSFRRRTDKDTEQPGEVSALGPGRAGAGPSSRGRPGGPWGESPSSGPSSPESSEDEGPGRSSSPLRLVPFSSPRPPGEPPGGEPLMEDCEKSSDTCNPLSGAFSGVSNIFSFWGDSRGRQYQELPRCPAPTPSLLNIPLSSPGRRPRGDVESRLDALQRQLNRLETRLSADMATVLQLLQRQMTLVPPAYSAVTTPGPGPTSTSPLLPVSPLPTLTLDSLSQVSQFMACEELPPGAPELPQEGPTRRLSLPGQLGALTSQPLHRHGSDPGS
On to `CO/N=C(\c1ccccc1)c1cccnc1`, for which the “hERG current change (%, negative = inhibition) at 1uM” value was determined as 11.5%.

With `C=CCCC(=O)N1CCC(n2nccc2NC(=O)CCCc2ccccc2)CC1`, the “hERG current change (%, negative = inhibition) at 1uM” value is 2.05%.

For the compound `CCCOc1ccccc1-c1nc(SCCC(=O)O)n[nH]1`, the “hERG current change (%, negative = inhibition) at 1uM” value is -5.67%.

Take `O=C(NCCc1ccccc1)C1c2ccccc2C(=O)N1C1CC1` (stereo not shown): the “hERG current change (%, negative = inhibition) at 1uM” value stood at 5.98%.

Regarding `Cc1ccc(S(=O)(=O)N2CCN(S(=O)(=O)c3cccs3)CC2)cc1`, the “hERG current change (%, negative = inhibition) at 1uM” value is recorded as -11.2%.

As to `CCn1c(SCC(=O)Nc2nc(C)c(C)s2)nnc1-c1cccnc1`, the “hERG current change (%, negative = inhibition) at 1uM” value is recorded as -6.88%.

With `OC1(c2ccc(Cl)cc2)CCN(Cc2cn[nH]c2-c2ccc(F)cc2)CC1`, the “hERG current change (%, negative = inhibition) at 1uM” value was -27.2%.

In the case of `C[C@@H]1CCC(=O)N(CC[C@H](N=[N+]=[N-])c2ccccc2)CC1`, the “hERG current change (%, negative = inhibition) at 1uM” value is given as 5.07%.

On to `COc1cccc2cc(C(=O)Nc3cccnc3N3CCOCC3)c(=O)oc12`, for which the “hERG current change (%, negative = inhibition) at 1uM” value stood at 8.86%.

Turning to `O=C(Cc1c[nH]c2ccccc12)OCCOC(=O)Cc1c[nH]c2ccccc12`, the “hERG current change (%, negative = inhibition) at 1uM” value is listed as 15.5%.

As to `CC(=O)C(Sc1ccc2nnc(-c3ccncc3)n2n1)C(C)=O`, the “hERG current change (%, negative = inhibition) at 1uM” value was 8.37%.

Take `CCn1c(=S)sc2c(=O)n(CC(=O)NC(C)CCc3ccccc3)c(C)nc21` (stereo not shown): the “hERG current change (%, negative = inhibition) at 1uM” value is reported as 8.43%.

As for `O=C(Nc1ccc(F)cc1F)NC1CCN(S(=O)(=O)c2ccc(F)cc2)CC1`, the “hERG current change (%, negative = inhibition) at 1uM” value is reported as 5.5%.

Turning to `Cc1nn(CC(=O)NCC(C)c2ccccc2)c(=O)c2cc(-c3ccccc3)nn12` (stereo not shown), the “hERG current change (%, negative = inhibition) at 1uM” value is 30.2%.

Take `c1ccc(CSc2ncnc3c2cnn3Cc2ccccc2)cc1`: the “hERG current change (%, negative = inhibition) at 1uM” value stood at 17.2%.

`Cc1cc(=O)n2nc(N3CCC(C(=O)NC(C)c4ccccc4)CC3)sc2n1` (stereo not shown): the “hERG current change (%, negative = inhibition) at 1uM” value was determined as 10%.

Take `C=CCC(O)(CCN1CCCCC1)c1ccccc1.Cl` (stereo not shown): the “hERG current change (%, negative = inhibition) at 1uM” value is given as -0.382%.

Consider `CCOc1c2ccc(C(=O)NCc3ccco3)cc2nn1CC`, for which the “hERG current change (%, negative = inhibition) at 1uM” value worked out at 12.6%.

Consider `Cc1ccc(-c2nnc(CSc3nnc(COc4ccccc4)n3-c3ccc(C)cc3)o2)cc1`, for which the “hERG current change (%, negative = inhibition) at 1uM” value came to 12.2%.

For the compound `COc1ccc2c(c1OC)C(=O)OC2Nc1ncccc1C` (stereo not shown), the “hERG current change (%, negative = inhibition) at 1uM” value is recorded as -1.88%.

Regarding `Cc1ccc(NC(=O)C(CC(C)C)NC(=O)C2CCC(C)CC2)nc1` (stereo not shown), the “hERG current change (%, negative = inhibition) at 1uM” value stood at 4.68%.

With `CCN(CC(=O)N1CCN(Cc2ccccc2)CC1)S(=O)(=O)c1ccc(F)cc1`, the “hERG current change (%, negative = inhibition) at 1uM” value is recorded as -9.4%.

As to `CCN(CC)CCN(C(=O)c1ccccc1OC)c1nc2ccc(F)cc2s1.Cl`, the “hERG current change (%, negative = inhibition) at 1uM” value is -4.16%.

As for `O=C(c1ccc(C(F)(F)F)cc1)C1CCCN(C(=O)Cn2cncn2)C1` (stereo not shown), the “hERG current change (%, negative = inhibition) at 1uM” value came to 11.9%.

`Cc1[nH]ncc1-c1ccccc1Cl`: the “hERG current change (%, negative = inhibition) at 1uM” value was 8.11%.

Take `COc1cccc(OC)c1C(=O)OCC(=O)/C(C#N)=C(\C)N`: the “hERG current change (%, negative = inhibition) at 1uM” value came to 2.37%.

Regarding `Cc1ccc(/C=N/N2CCN(Cc3ccc(Cl)cc3)CC2)o1`, the “hERG current change (%, negative = inhibition) at 1uM” value was -1.21%.

For the compound `O=C(Cc1ccccc1[N+](=O)[O-])NNC(=O)c1ccncc1`, the “hERG current change (%, negative = inhibition) at 1uM” value was 1.42%.

Turning to `Cc1c(OC(C)C(=O)NCc2ccncc2)ccc2c3c(c(=O)oc12)CCCC3` (stereo not shown), the “hERG current change (%, negative = inhibition) at 1uM” value is 1.2%.

`COc1ccc(S(=O)(=O)NCC(=O)NCc2cc(=O)n(C)c(=O)n2C)cc1`: the “hERG current change (%, negative = inhibition) at 1uM” value is on record as 15.5%.

Regarding `O=C(O)CCC(=O)NCc1ccc2[nH]c3c(c2c1)CCCC3`, the “hERG current change (%, negative = inhibition) at 1uM” value is 5.85%.

On to `NCCNc1ccc([N+](=O)[O-])c2cccnc12`, for which the “hERG current change (%, negative = inhibition) at 1uM” value came to 0.884%.

With `COc1ccc(C2CC(=O)c3c(C)nc(N4CCN(c5ccccc5)CC4)nc3C2)cc1` (stereo not shown), the “hERG current change (%, negative = inhibition) at 1uM” value is 3.16%.

With `Cc1cc(C)c(S(=O)(=O)c2ccccc2)c(OC(=O)c2c(F)cccc2Cl)n1`, the “hERG current change (%, negative = inhibition) at 1uM” value is reported as 14.8%.

As for `CN1CCN(/N=C/c2nc(-c3ccc(Cl)cc3)n3ccccc23)CC1`, the “hERG current change (%, negative = inhibition) at 1uM” value came out at 7.72%.

As for `CC(=O)Nc1ccc(S(=O)(=O)NCc2nnnn2-c2ccc(Cl)cc2)cc1`, the “hERG current change (%, negative = inhibition) at 1uM” value came to 10.6%.

Consider `COc1cccc(C(=O)N2CCC(O)(c3cccnc3)CC2)c1`, for which the “hERG current change (%, negative = inhibition) at 1uM” value was determined as 9.13%.

On to `CC1(C)CNC(=O)c2sc(NC(=O)c3ccccc3Cl)nc2C1`, for which the “hERG current change (%, negative = inhibition) at 1uM” value is 9.87%.

On to `COCCN(C(=O)CCc1ccccc1OC)c1nnc(-c2cccnc2)s1`, for which the “hERG current change (%, negative = inhibition) at 1uM” value is listed as 7.3%.

With `O=C(NCc1ccccc1Cl)C1CCCN1C(=O)Nc1ccccc1` (stereo not shown), the “hERG current change (%, negative = inhibition) at 1uM” value is listed as 13.7%.

With `Cc1cc(C)cc(NC(=O)CC2NCCNC2=O)c1` (stereo not shown), the “hERG current change (%, negative = inhibition) at 1uM” value was found to be 18.1%.

On to `CCc1cccc(NC(=O)Cn2c3[n+](c4ccc(C(F)(F)F)cc42)CCCCC3)c1.[Cl-]`, for which the “hERG current change (%, negative = inhibition) at 1uM” value is recorded as 1.62%.

As for `CC(C)OCCCN1C=C2C(=O)C(C)(OC(=O)CCc3ccccc3)C(=O)C=C2C=C1c1ccc(C#N)cc1` (stereo not shown), the “hERG current change (%, negative = inhibition) at 1uM” value is reported as -18.1%.
